# Laboratory results published in PubChem BioAssay AID2202238 (Ras Initiative Chemistry Research Team, Frederick National …, 2025).
# The list shows a part of the results. Shown are side measurements of this screen, not its main read-out; they come without a call.
# Molecular target: GTPase KRas (Homo sapiens) (UniProt P01116)
# Experiment: Cysteine mutants labelled by reactive fragments (mass read-out) (AID 2202238)
# Design: protein at 5 µM with 500 µM competing thiol for 1.5 h
# Settings: KRAS G12D cysteine mutants, disulfide tethering, MALDI-TOF labeling, stronger effect = higher value, fragment at 500 µM
# [1] = measured here: G75C mutant labeling
# [2] = measured here: H94C mutant labeling
# [3] = measured here: I36C mutant labeling
# [4] = measured here: L120C mutant labeling
# [5] = measured here: M67C mutant labeling
# [6] = measured here: M72C mutant labeling
# [7] = measured here: N86C mutant labeling
# [8] = measured here: P121C mutant labeling
# [9] = measured here: S122C mutant labeling
# [10] = measured here: S136C mutant labeling
# [11] = measured here: G60C mutant labeling
# [12] = measured here: N26C mutant labeling
# UniProt P01116, sequence (P01116 whole entry, looked up, the tested form may be a part): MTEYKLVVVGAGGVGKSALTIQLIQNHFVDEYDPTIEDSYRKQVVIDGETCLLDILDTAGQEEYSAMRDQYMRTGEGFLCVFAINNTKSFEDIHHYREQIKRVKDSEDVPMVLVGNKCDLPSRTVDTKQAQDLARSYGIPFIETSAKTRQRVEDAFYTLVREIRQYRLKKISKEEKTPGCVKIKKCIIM
SMILES,percent labeling [1],percent labeling [2],percent labeling [3],percent labeling [4],percent labeling [5],percent labeling [6],percent labeling [7],percent labeling [8],percent labeling [9],percent labeling [10],percent labeling [11],percent labeling [12]
CCCc1c(NC(=O)CCS)cnn1-c1cc(F)c(OC)cc1F,23.1%,23.8%,18.5%,17%,22.6%,40.8%,20.9%,18.1%,17.7%,44.5%,,
CNC(=O)[C@@H]1Cc2ccccc2CN1C(=O)CCS,6.8%,27.4%,28.2%,33.3%,27.4%,22.1%,22.6%,31.5%,25.1%,44.2%,,
O=C(CCS)NCCn1ncc(Br)n1,9.3%,33%,34.3%,36.9%,36.2%,17.8%,13.9%,32.6%,33.7%,48.1%,,
O=C(NCCS)c1nn(-c2ccc(F)cc2)ccc1=O,24.3%,37.9%,28.4%,56.2%,45.4%,48.4%,27.6%,30.7%,31.9%,53.4%,39.8%,46.6%
O=C(CC1CCC2(CCOCC2)CO1)NCCS (stereo unspecified),9.6%,30.3%,21.2%,38.7%,30.6%,15.3%,22.3%,33.2%,31.4%,40.1%,24.4%,34%
O=C(CCS)Nc1ccc2ccc(O)cc2c1,24.3%,28.1%,28.9%,21.2%,18.9%,64.9%,15%,25.3%,19.5%,36.5%,,
O=C(CCS)NC1(c2nn[nH]n2)CCCC1,13.2%,20.3%,26%,28.9%,18%,10.7%,21.8%,31.1%,39.1%,38.5%,,
O=C(NCCS)c1ccc(OCc2ccccc2)cc1,6.3%,3.3%,9.9%,9.1%,11.5%,14.7%,5.6%,7.8%,4.3%,10.1%,12.4%,26.7%
Cn1cc(-c2cc(F)ccc2NC(=O)CCS)cn1,17.4%,47%,47.4%,34.2%,41.7%,30.5%,35.5%,35.9%,30.1%,52.4%,,
Cn1nc(C(F)(F)F)nc1CNC(=O)CCS,8.3%,23.8%,24.6%,31.1%,27.8%,10%,18.3%,28.6%,35%,42.1%,,
COc1cccc(CNC(=O)CCS)c1OC(F)F,13%,35.2%,34.1%,30.6%,30.7%,34.5%,21.8%,27.5%,30.9%,44.5%,,
O=C(CCS)NCc1nnnn1CC1CC1,13.8%,31.9%,39%,30.1%,32.1%,23.5%,38.1%,37.7%,35.4%,48.9%,,
O=C(NCCS)c1cc(-c2c[nH]c3ccccc23)n[nH]1,15.8%,12.6%,9.9%,17.3%,28.5%,75.9%,7.7%,12.7%,6.5%,18.9%,18%,18.4%
O=C(CCS)N1CCN(c2ccccc2)C(=O)C1,10.7%,26.3%,37.9%,28.7%,27.5%,23.1%,23.9%,34.7%,35.3%,51.2%,,
O=C(CCS)N1CCC(c2nc(C3CC3)n[nH]2)CC1,10.7%,35.3%,38.1%,38.1%,41.2%,19.5%,20.2%,34.7%,38.6%,59.2%,,
CN1CCN(Cc2ccc(CNC(=O)CCS)cc2)CC1,14.2%,36.1%,50.8%,34.6%,51%,27.2%,28%,31.3%,30.5%,46.9%,,

SMILES,percent labeling [1],percent labeling [2],percent labeling [3],percent labeling [4],percent labeling [5],percent labeling [6],percent labeling [7],percent labeling [8],percent labeling [9],percent labeling [10],percent labeling [11],percent labeling [12]
O=C(CCS)Nc1ccc(-c2ncc3n2CCCC3)cc1,9.1%,15.7%,26.9%,21.6%,24.4%,42.1%,9%,16.6%,15.4%,29.6%,,
CCCn1ccnc1-c1cccc(NC(=O)CCS)c1,20%,36.5%,37.6%,28.2%,33.6%,38.7%,28.1%,30.3%,27.4%,64.1%,,
O=C(CN1C(=O)C2CCCCC2C1=O)NCCS (stereo unspecified),11.8%,32.2%,21%,44.2%,27.6%,25.7%,32%,34.7%,38%,37.7%,27.7%,35.6%
O=C(CCCOc1ccc2c(c1)OCO2)NCCS,19.1%,26.9%,18.7%,34.5%,22.5%,28%,23.8%,22.7%,21.5%,28.8%,37.1%,36.4%
Cn1c(=O)oc2cc(NC(=O)CCS)ccc21,9.1%,17.5%,28.8%,17.6%,21.1%,27.1%,10.5%,16.8%,14.2%,30.9%,,
CC(C(=O)NCCS)N1C(=O)c2ccccc2C1=O (stereo unspecified),13.2%,30.9%,26.2%,44.8%,36.7%,34.6%,28.2%,33.6%,33.4%,42.8%,38.3%,34.3%
O=C(NCCS)c1ccc2cncc(Br)c2n1,33.8%,22.5%,13.7%,19.1%,14.7%,48.8%,12.6%,12.9%,8.2%,19.8%,23.5%,32.4%
O=C(NCCS)c1ccc(F)c2ccsc12,13.1%,23.3%,8.6%,10.9%,7.5%,46.3%,6.6%,12%,8.4%,20.1%,44.2%,27.5%
O=C(CCS)NCC1(c2ccccc2)CCOCC1,13.8%,42.8%,44.6%,36.6%,42.5%,32.7%,31.2%,39%,41.1%,65.7%,,
O=C(NCCS)c1[nH]c2ccc(Cl)cc2c1Cl,18.7%,16.6%,21.3%,20.7%,10.9%,60.4%,15.2%,17%,5.7%,18.6%,52.7%,35.7%
COC(=O)c1cc2n(n1)CCCC2NC(=O)CCS (stereo unspecified),10.4%,29.2%,34.1%,28.4%,38.4%,22.8%,37.8%,32.5%,30.8%,49.6%,,
O=C(/C=C/c1ccc(O)c(O)c1)NCCS,17.9%,34.3%,26.7%,32.9%,33%,52.4%,34.6%,30%,36.9%,46.9%,,
CN1C[C@@H](C(=O)NCCS)[C@H](c2ccccc2)C1,17.6%,40.1%,41%,30.9%,52.9%,24%,26.1%,31.4%,26.1%,64.6%,44.6%,41.2%
O=C(NCCS)c1[nH]ccc1-c1c(Cl)cccc1Cl,12.3%,22.6%,16.2%,22.8%,15%,68.2%,15.1%,15.5%,9.1%,15.5%,47.6%,27.3%
CC(C)C(NC(=O)c1ccc(Cl)cc1)C(=O)NCCS (stereo unspecified),18%,24.2%,17.3%,32%,18.1%,20.9%,15.7%,20.5%,14.4%,21.6%,37.2%,30.4%
